Assay results as given in the supplement of paper PMC4967469.

Experiments:
Experiment in all cases: Viability of human cancer cell lines after 72 h of drug (GDSC screen)
Docetaxel = compound: CC(=O)O[C@@]12CO[C@@H]1C[C@H](O)[C@@]1(C)C(=O)[C@H](O)C3=C(C)[C@@H](OC(=O)[C@H](O)[C@@H](NC(=O)OC(C)(C)C)c4ccccc4)C[C@@](O)([C@@H](OC(=O)c4ccccc4)[C@H]21)C3(C)C [Docetaxel]; details: top dose 0.0125 µM
Procedure: (§1)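 Human cancer cell lines in 384-well plates, medium with 10% serum, drug for 72 h over a 256-fold dose range (nine 2-fold or five 4-fold steps up to the top dose). Adherent lines were fixed and stained with the nucleic acid dye Syto60, suspension lines read with resazurin; signal relative to control wells, capped at 0 and 100%. One two-parameter sigmoid per drug and line, fitted in a mixed model over all curves with the slope shared within a line.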

AMG-706 = compound: CC1(C)CNc2cc(NC(=O)c3cccnc3NCc3ccncc3)ccc21 [AMG-706]; details: top dose 2 µM; top dose inferred
Procedure: as §1

JNK Inhibitor VIII = compound: CCOc1nc(NC(=O)Cc2cc(OC)ccc2OC)cc(N)c1C#N [JNK Inhibitor VIII]; details: top dose 10 µM; top dose inferred
Procedure: as §1

NSC-207895 = compound: CN1CCN(c2ccc([N+](=O)[O-])c3no[n+]([O-])c23)CC1 [NSC-207895]; details: top dose 20 µM; top dose inferred
Procedure: as §1

FTI-277 = compound: COC(=O)[C@H](CCSC)NC(=O)c1ccc(NC[C@@H](N)CS)cc1-c1ccccc1 [FTI-277]; details: top dose 1.024 µM; top dose inferred
Procedure: as §1

YM155 = compound: COCC[n+]1c2c(n(Cc3cnccn3)c1C)C(=O)c1ccccc1C2=O [YM155]; details: top dose 5.12 µM
Procedure: as §1

OSI-906 = compound: C[C@]1(O)C[C@@H](c2nc(-c3ccc4ccc(-c5ccccc5)nc4c3)c3c(N)nccn32)C1 [OSI-906]; details: top dose 2.56 µM; top dose inferred
Procedure: as §1

SB-715992 = compound: Cc1ccc(C(=O)N(CCCN)[C@@H](c2nc3cc(Cl)ccc3c(=O)n2Cc2ccccc2)C(C)C)cc1 [SB-715992]; details: top dose 0.128 µM; top dose inferred
Procedure: as §1

JQ1 = compound: Cc1sc2c(c1C)C(c1ccc(Cl)cc1)=N[C@@H](CC(=O)OC(C)(C)C)c1nnc(C)n1-2 [JQ1]
Procedure: as §1

Belinostat = compound: O=C(/C=C/c1cccc(S(=O)(=O)Nc2ccccc2)c1)NO [Belinostat]; details: top dose 20 µM; top dose inferred
Procedure: as §1

JNJ-26854165 = compound: c1ccc2c(CCNc3ccc(Nc4ccncc4)cc3)c[nH]c2c1 [JNJ-26854165]; details: top dose 10 µM
Procedure: as §1

[1] = top dose 1 µM, screen: GDSC drug entry 1218, top dose inferred
[2] = top dose 2.56 µM, screen: GDSC drug entry 163

## OVISE (ovary, adherent)
Docetaxel
  AUC: 0.731
  pIC50: 8.35
AMG-706
  AUC: 0.973
  pIC50: < 5.70
JNK Inhibitor VIII
  AUC: 0.975
  pIC50: < 5.00
NSC-207895
  AUC: 0.906
  pIC50: < 4.70
FTI-277
  AUC: 0.948
  pIC50: < 5.99
YM155
  AUC: 0.061
  pIC50: > 7.70
OSI-906
  AUC: 0.962
  pIC50: < 5.59
SB-715992
  AUC: 0.87
  pIC50: < 6.89
JQ1; [1]
  AUC: 0.968
  pIC50: < 6.00
JQ1; [2]
  AUC: 0.69
  pIC50: 6.18
Belinostat
  AUC: 0.522
  pIC50: 5.84
JNJ-26854165
  AUC: 0.893
  pIC50: < 5.00

## NCI-H2405 (lung adenocarcinoma, adherent)
Docetaxel
  AUC: 0.944
  pIC50: < 7.90
AMG-706
  AUC: 0.984
  pIC50: < 5.70
JNK Inhibitor VIII
  AUC: 0.986
  pIC50: < 5.00
NSC-207895
  AUC: 0.986
  pIC50: < 4.70
FTI-277
  AUC: 0.986
  pIC50: < 5.99
YM155
  AUC: 0.204
  pIC50: 7.42
OSI-906
  AUC: 0.912
  pIC50: < 5.59
SB-715992
  AUC: 0.921
  pIC50: < 6.89
JQ1; [1]
  AUC: 0.984
  pIC50: < 6.00
JQ1; [2]
  AUC: 0.877
  pIC50: < 5.59
Belinostat
  AUC: 0.667
  pIC50: 5.42
JNJ-26854165
  AUC: 0.953
  pIC50: < 5.00

## HCC1419 (breast, adherent)
Docetaxel
  AUC: 0.951
  pIC50: < 7.90
AMG-706
  AUC: 0.816
  pIC50: 5.75
JNK Inhibitor VIII
  AUC: 0.891
  pIC50: < 5.00
NSC-207895
  AUC: 0.976
  pIC50: < 4.70
FTI-277
  AUC: 0.979
  pIC50: < 5.99
YM155
  AUC: 0.413
  pIC50: 6.78
OSI-906
  AUC: 0.979
  pIC50: < 5.59
SB-715992
  AUC: 0.971
  pIC50: < 6.89
JQ1; [1]
  AUC: 0.98
  pIC50: < 6.00
JQ1; [2]
  AUC: 0.685
  pIC50: 6.18
Belinostat
  AUC: 0.638
  pIC50: 5.45
JNJ-26854165
  AUC: 0.869
  pIC50: < 5.00

## A375 (melanoma, adherent)
Docetaxel
  AUC: 0.652
  pIC50: 8.72
AMG-706
  AUC: 0.957
  pIC50: < 5.70
JNK Inhibitor VIII
  AUC: 0.949
  pIC50: < 5.00
NSC-207895
  AUC: 0.88
  pIC50: 4.84
FTI-277
  AUC: 0.988
  pIC50: < 5.99
YM155
  AUC: 0.036
  pIC50: > 7.70
OSI-906
  AUC: 0.677
  pIC50: 6.35
SB-715992
  AUC: 0.717
  pIC50: 7.54
JQ1; [1]
  AUC: 0.991
  pIC50: < 6.00
JQ1; [2]
  AUC: 0.909
  pIC50: 5.61
Belinostat
  AUC: 0.338
  pIC50: 6.31
JNJ-26854165
  AUC: 0.881
  pIC50: 5.14

## 201T (lung adenocarcinoma, adherent)
Docetaxel
  AUC: 0.67
  pIC50: 8.58
AMG-706
  AUC: 0.967
  pIC50: < 5.70
JNK Inhibitor VIII
  AUC: 0.974
  pIC50: < 5.00
NSC-207895
  AUC: 0.975
  pIC50: < 4.70
FTI-277
  AUC: 0.953
  pIC50: < 5.99
YM155
  AUC: 0.451
  pIC50: 6.64
OSI-906
  AUC: 0.623
  pIC50: 6.42
SB-715992
  AUC: 0.863
  pIC50: < 6.89
JQ1; [2]
  AUC: 0.743
  pIC50: 6.01
Belinostat
  AUC: 0.699
  pIC50: 5.27
JNJ-26854165
  AUC: 0.952
  pIC50: < 5.00

## NCI-H1048 (small cell lung carcinoma, adherent)
Docetaxel
  AUC: 0.69
  pIC50: 8.60
AMG-706
  AUC: 0.987
  pIC50: < 5.70
JNK Inhibitor VIII
  AUC: 0.989
  pIC50: < 5.00
NSC-207895
  AUC: 0.867
  pIC50: 4.82
FTI-277
  AUC: 0.982
  pIC50: < 5.99
YM155
  AUC: 0.021
  pIC50: > 7.70
OSI-906
  AUC: 0.99
  pIC50: < 5.59
SB-715992
  AUC: 0.725
  pIC50: 7.49
JQ1; [1]
  AUC: 0.989
  pIC50: < 6.00
JQ1; [2]
  AUC: 0.961
  pIC50: < 5.59
Belinostat
  AUC: 0.506
  pIC50: 5.89
JNJ-26854165
  AUC: 0.906
  pIC50: < 5.00

pIC50: −log10 of the molar value. Lines with a small IC50 respond at low doses; a fit beyond the top or the lowest dose is shown as a bound at that dose. AUC, from the same fit, is the share of area under the viability curve across the 256-fold dose range; values near 1 show little effect. For some of these results: An inferred top dose comes from the curve model; the source does not state it. For some of these results: An entry number marks a drug with two screens in the source, which often give different values.
